In PubChem BioAssay AID485344 (National Center for Advancing Translational Sciences (NCATS), 2010):
Where “and” joins values, the source holds several entries; their conditions need not be identical. Equal values may be shown once. The campaign covered roughly 340,000 compounds. About 6,900 (2%) were called active. Rule as the data show it: active = inhibition above about 30%; inactive = below that, where a call was filed. The list shows a part of the results, in another mix than the full data. Entries without a call were filed so in the source.

molecular target: D(2) dopamine receptor (Homo sapiens) (UniProt P14416); assay: HTS Assay for Allosteric Antagonists of the Human D2 Dopamine Receptor: Primary Screen for Antagonists; conditions: HEK293 TREx D2 cells, calcium flux, dopamine EC80; at 10 µM; stronger effect = higher value; also: 0% is about no effect
UniProt P14416, sequence (P14416 whole entry, looked up): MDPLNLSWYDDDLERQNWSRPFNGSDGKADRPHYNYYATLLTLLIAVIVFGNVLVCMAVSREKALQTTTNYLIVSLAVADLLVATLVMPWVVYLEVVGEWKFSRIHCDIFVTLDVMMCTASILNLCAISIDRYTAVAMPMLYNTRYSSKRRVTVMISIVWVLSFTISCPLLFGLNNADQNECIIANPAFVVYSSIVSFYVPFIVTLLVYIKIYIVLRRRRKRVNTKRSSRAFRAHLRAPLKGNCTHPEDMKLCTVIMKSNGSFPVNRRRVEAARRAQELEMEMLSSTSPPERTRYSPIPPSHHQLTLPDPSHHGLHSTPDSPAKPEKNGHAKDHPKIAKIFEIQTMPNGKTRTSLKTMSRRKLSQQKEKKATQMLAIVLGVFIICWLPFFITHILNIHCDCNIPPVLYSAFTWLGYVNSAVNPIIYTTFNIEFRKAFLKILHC
Summary of the method: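 Calcium mobilization kinetics were recorded at 1 s intervals in tetracycline-induced HEK293 T-REx D2 cells, first for 180 s after compound addition and then 180 s after EC80 dopamine.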

SMILES	inhibition
O=C(Cn1c(=O)c2cccn2c2ccccc21)NCCc1ccccc1	-12.8%
COc1cc(NC(=O)CN(c2ccc(C)cc2)S(=O)(=O)c2cccc3nonc23)cc(OC)c1	-26%
CCc1cccc(NC(=O)CSC2=Nc3ccccc3N=C(c3ccc(F)cc3)C2)c1	6.49%
CCOc1ccccc1C(=O)Nc1ccc(S(=O)(=O)Nc2nc(C)cc(C)n2)cc1	-24.6%
Cc1ccc2nc(NC(=O)COc3ccc(F)cc3)sc2c1	18.7%
Cc1ccc(NC(=O)Cn2cnc3sc(C(=O)O)c(C)c3c2=O)cc1Cl	3.69%
CCN1CCN(c2nc3c(S(=O)(=O)c4ccc(Br)cc4)nnn3c3ccsc23)CC1	7.69%
C=CCN(C)CC/C=C1\c2ccccc2CSc2ccccc21	active: 68.5%
Cc1cc(C)c(NC(=O)Cn2c(=O)n(-c3ccc(CC(=O)NCC4CCCO4)cc3)c(=O)c3ccccc32)c(C)c1 (stereo not given)	-4.33%
Cc1ccc(-c2nc3n(n2)C(=O)CC(c2ccc(Cl)cc2)S3)cc1 (stereo not given)	-25.5%
Cc1ccc(OCC(=O)OCc2cc(=O)n3nc(-c4cccs4)sc3n2)cc1C	-3.11%
Cc1ccc(C(=O)Nc2sc3c(c2C(=O)NCc2ccco2)CCC(C(C)(C)C)C3)cc1 (stereo not given)	7.44%
O=C(NCc1ccc(F)cc1)c1cc2n(n1)CCCN(Cc1ccc(F)cc1)C2=O	2.68%
Cc1ccc(C)c(N2CCN(CCCNC(=O)c3cnn(-c4ccccc4Cl)c3C3CCN(C(=O)OC(C)(C)C)CC3)CC2)c1	0.837%
CCOc1ccc(Sc2cc(C(=O)NC(C)c3ccccc3)c3ccccc3n2)cc1 (stereo not given)	23.3%
Cc1ccc(OCC(=O)Nc2cc3nn(-c4ccccc4)nc3cc2C)cc1	8.05%
Cc1ccsc1CN(C(=O)COc1ccc(Br)cc1)C1CCS(=O)(=O)C1 (stereo not given)	-7.2%
Cc1ccc(C(=O)Nc2ccc(NC(=O)c3cccs3)cc2)cc1C	-28.4%
Cc1cc(Cl)ccc1NC(=O)C(=O)NCc1ccco1	1.99%
Cc1cccn2c(=O)c(/C=C(\C#N)c3nc4ccccc4[nH]3)c(Oc3ccc(C(C)(C)C)cc3)nc12	1.94%
CCOc1ccc(-c2ccc(NS(=O)(=O)c3ccc(C)cc3)cc2)nn1	0.566%
COc1ccc(CCCc2nnc(SCC(=O)Nc3ccc(C)cc3)o2)cc1	9.82%
O=C1NC(=Nc2ccc(Cl)cc2)/C(=C/c2ccco2)S1	active: 59.2%
O=C(CCc1nc(-c2cccs2)no1)Nc1cccc([N+](=O)[O-])c1	10.7%

SMILES	inhibition
Cc1ccc(C)c(N2CCN(C(c3ccccc3)c3nnc(-c4ccccc4F)o3)CC2)c1 (stereo not given)	-13.7%
COc1cccc(NC2=CC(c3ccc(C(C)C)cc3)N(c3cccc(OC)c3)C2=O)c1 (stereo not given)	-2.43%
Cc1c(Cl)cccc1-n1nnc(-c2nc(-c3ccc4c(c3)OCO4)no2)c1C	-1.38%
COc1ccc(C)cc1NS(=O)(=O)c1cc(Br)cc2c1N(C(C)=O)C(C)C2 (stereo not given)	-4.94%
Cc1c(C(=O)N(Cc2cccc(Cl)c2)Cc2ccco2)oc2ccccc12	4.24%
Cc1cc(N2CCOCC2)n2nc(C)c(-c3ccc(Cl)cc3)c2n1	active: 33%
CC(=O)Nc1ccc(NC(=O)CN2C(=O)CCc3cc(S(=O)(=O)N4CCCCC4)ccc32)cc1	-1.94%
O=C(Cn1cc(SCc2ccc(Cl)cc2)c2ccccc21)N1CCCC1	1.74%
O=C(Nc1ccc(F)cc1)Nc1nnc(SCC(=O)N2CCCCC2)s1	-18.6%
COc1ccc(Cl)cc1S(=O)(=O)N1CCC(c2ccncc2)CC1	-8.51%
COc1cccc(/C=C/c2nc3ccccc3c(=O)n2-c2ccc(C)c(C)c2)c1OC	-3.46%
Cc1nc(N)c(S(=O)(=O)c2ccccc2)c(Nc2ccc(Br)cc2)n1	5.2%
CCOC(=O)Cn1c(=O)c2c(nc(N3CCOCC3)n2C)n(C)c1=O	active: 38.7%
O=C(c1cccn1-c1nnc(N2CCCC2)s1)N1CCN(c2ccc(F)cc2)CC1	2.69%
Cc1cccc(OCC(=O)NCc2ccc3c(c2)CCN3C(=O)c2ccc(Cl)cc2)c1	-27%
CCOc1ccc(NC(=O)c2c(NC(=O)c3ccncc3)sc3c2CCC(C(C)(C)C)C3)cc1 (stereo not given)	8.36%
O=C(NC1CCCC1)c1cc(-c2ccccc2Cl)on1	active: 49.8%
CSCCC(NC(=O)c1ccccc1)C(=O)NCCc1ccc2c(c1)OCCO2 (stereo not given)	active: 65.6%
COc1cccc(CNC(=O)CSc2nnc(C)c3c(C)n(-c4ccccc4)nc23)c1	8.05%
Cc1ccccc1Nc1c(-c2ccc(O)cc2)nc2c(C)cccn12	22.8%
COc1ccc(NC(=O)CCS(=O)(=O)c2cc3c4c(c2)CCN4C(=O)CC3)cc1OC	-4.2%
CCC(C(=O)Nc1ccc(F)cc1F)n1nc(-c2ccccc2)c2c(c1=O)CCCC2 (stereo not given)	4.89%
CC1CCN(S(=O)(=O)c2ccc3c(c2)oc(=O)n3CC(=O)N2CCCCC2)CC1	-0.537%
Cc1ccccc1CNCCSc1nnnn1C	-12.2%

SMILES	inhibition
Cc1cccc(C)c1NC(=O)c1nc(SC(C)C)ncc1Cl	13.2%
O=C(Nc1ccc(O)c(-c2nc3ccccc3o2)c1)c1ccc(-c2cccc(Cl)c2)o1	7.81%
COCCCNC(=O)C1CCN(C(=O)c2ccc(-n3ccc4ccccc43)s2)CC1	-3.85%
Cc1cc(C)cc(N(CC(=O)Nc2ccc(C)cc2Cl)S(=O)(=O)c2c(C)[nH]c(=O)[nH]c2=O)c1	-14.2%
CCOc1ccccc1NC(=O)Cn1c(=O)n(CCCCC(=O)NCCCOC)c(=O)c2ccccc21	5.81%
CC1CCCCC1NC(=O)CCNS(=O)(=O)c1cc(Br)cnc1N (stereo not given)	active: 32.9%
Cc1ccc2[nH]c3c(=O)n(CC(=O)NCCCN4CCN(c5ccc(F)cc5)CC4)ncc3c2c1	-16.6% and active: 62.6%
CCc1ccccc1N(C)C(=O)c1cc2c(Cl)nc3ccc(C)cc3c2s1	-6.14%
CCc1ccc(NC(=O)Cn2nnc(C(=O)NCCc3ccccc3)c2N)cc1	7.56%
O=C(NCc1cccc(F)c1)C1CCN(c2nn3cc(-c4ccc(F)cc4)nc3s2)CC1	3.87%
Cc1onc(-c2ccccc2)c1C(=O)NNC(=S)NC(=O)c1ccc(Cl)cc1Cl	active: 30.3%
COc1ccc(OC)c(CCNC(=O)c2cc3cccc4c3n2CCS4)c1	10.9%
Cc1cc2n(n1)CCCN2C(=O)Nc1ccc(C)c(Cl)c1	1.05%
Cc1ccc(C)c(N2CCN(S(=O)(=O)c3ccc(F)c(C(=O)Nc4ccc(Cl)cc4Cl)c3)CC2)c1	0.261%
CCN(Cc1ccccc1)C(=O)CCS(=O)(=O)c1cc(Br)cc2c1N(C(=O)C1CC1)CC2	6.56%
CN(c1ccccc1)S(=O)(=O)c1nnc(NC(=O)c2cccs2)s1	7.45%
CCCSc1ncc(Cl)c(C(=O)Nc2sc3c(c2C(N)=O)CCCC3)n1	-1.11%
O=C1C2C3CCC(O3)C2C(=O)N1c1cc(OCC(F)F)cc([N+](=O)[O-])c1 (stereo not given)	active: 34.8%
O=c1c(NCCc2ccc(Cl)cc2)nccn1-c1ccccc1	3.61%
COC(=O)c1ccc(-n2nnc(-c3nsc(NC(=O)c4ccc(Cl)cc4)n3)c2C)cc1	25.6%
COc1ccccc1NC(=O)CCNS(=O)(=O)c1ccc2c(c1)CCN2C(=O)C1CC1	-4.4%
COc1ccc(S(=O)(=O)N(CC(=O)NCCSc2ccccc2)c2ccc(Cl)cc2)cc1	-6.16%
O=C(CSc1nccn1Cc1ccc(F)cc1)NCc1ccccc1	7.71%
Cc1cccc(OCC(=O)Nc2cccc(C(=O)OCc3cc(=O)n4c(C)csc4n3)c2)c1	14.3%

SMILES	inhibition
COc1ccc(-n2ncc(C(=O)NCc3ccc4c(c3)OCO4)c2C2CCN(C(=O)OC(C)(C)C)CC2)cc1	11.9%
CCc1cccc(N2C(=O)CSC23C(=O)N(Cc2ccccc2F)c2ccccc23)c1 (stereo not given)	3.12%
COc1ccc(-c2cn3nc(SCC(=O)Nc4ccccc4F)ccc3n2)cc1	-1.03%
COC(=O)c1scc(-c2ccc(C)cc2)c1S(=O)(=O)Nc1ccc(NC(C)=O)cc1	-1.09%
Cc1cc(C)c(NC(=O)COCc2cc(-c3cccs3)on2)c(C)c1	18.3%
CCN(CC)CCCNC(=O)C(C)Sc1nc(-c2ccccc2)cc(C(F)(F)F)n1 (stereo not given)	active: 31.2%
Cc1cc(C)cc(OC2CCCCC2NS(=O)(=O)c2ccccc2)c1 (stereo not given)	active: 36.2%
CNS(=O)(=O)c1cn(CC(=O)N2CCN(c3ccc(Cl)cc3)CC2)cc1S(=O)(=O)NC	-4.31%
Cc1nc2cccnc2n1C1CCN(C(=O)Nc2ccccc2C(F)(F)F)CC1	18.2%
CCOc1ccc(-n2nc(CO)c(C(=O)NCC(c3ccccc3)c3ccccc3)n2)cc1	-12.6%
COc1ccc(C(=O)COC(=O)CCCC(=O)Nc2ccc(C(C)=O)cc2)cc1	-9.64%
O=C(NCc1ccccc1)c1cccc(N2CCCS2(=O)=O)c1	-3.73%
O=c1ccc2cc(S(=O)(=O)NCc3ccc(Cl)cc3)ccc2[nH]1	-4.46%
CCN(CC)c1ccc2cc(-c3nc(-c4ccccc4)no3)c(=O)oc2c1	-8.6%
Cc1cc(C)c(NC(=O)Cn2nnc(C(=O)NCc3cccs3)c2N)c(C)c1	20%
Cc1ccc(CNC(=O)c2c(-c3ccc(F)cc3F)noc2C)o1	-22%
COc1ccc(-c2cn3nc(N4CCCC(C(=O)Nc5cc(Cl)ccc5OC)C4)sc3n2)cc1 (stereo not given)	-5.35%
O=C(NCc1cccc(Cl)c1)C1CCN(c2nn3cc(-c4ccc(F)cc4)nc3s2)CC1	0.483%
COc1cc(NC(=O)Cn2c(=O)n(-c3ccccc3)c(=O)c3c4c(sc32)CCCC4)cc(OC)c1	18.5%
Cc1ccccc1OCc1ccc(-c2nc(C#N)c(N3CCCCC3)o2)o1	-2.28%
COc1ccc(CC(=O)NCC(c2ccc(N(C)C)cc2)N2CCOCC2)cc1OC (stereo not given)	3.86%
CC1CCN(S(=O)(=O)c2ccc(NC(=O)CN3CCN(c4ccccc4)CC3)cc2)CC1	active: 59.1%
CCOC(=O)c1cc2c(=O)n3ccccc3nc2n(Cc2ccco2)c1=NC(=O)c1ccc(OC)cc1	4.13%
